Source: PubChem BioAssay AID995 (National Center for Advancing Translational Sciences (NCATS), 2007)
Values joined by “and” are separate entries in the source; they are usually repeats but may differ in a detail not shown here. Equal values may be shown once. Screen size: about 72,000 compounds; about 710 (0.99%) were called active. The shares of active, inactive and inconclusive entries below differ from those in the screen. Calls come from the whole dose curve; as a rule, active = well fitted inhibition curve with a large enough effect; inconclusive = small, poorly fitted or top-dose-only effect; inactive = no such curve, though single readings can be large or run the other way. Potencies beside an inconclusive call are fits to weak or partial responses and may not hold up.

assay: qHTS Assay for Inhibitors of the ERK Signaling Pathway using a Homogeneous Screening Assay; conditions: HEK293-V1b, vasopressin-stimulated pERK AlphaScreen; activity, negative = inhibition: at 57.5 µM (top of the series) unless noted; note: nearly all actives have a fitted effect of over 55% in size
Outline: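 Phosphorylated ERK1/2 detected via AlphaScreen bead proximity in lysates of V1b-expressing HEK293 cells given 25 nM vasopressin for 5 min after 30 min compound exposure (37 °C). AC50 from Hill equation; basal DMSO 0%, vasopressin 100%.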
% is set by controls: 0 for no effect and ±100 for the full control effect; potency is the fitted concentration of half-maximal effect; tags give direction and shape of the fitted curve.

| Structure (SMILES) | Potency | activity, negative = inhibition |
| --- | --- | --- |
| COc1cccc(Cn2c(=O)c(-c3ccc(Cl)cc3)nc3cnc(N4CCN(C)CC4)nc32)c1 | inactive |  |
| CCOC(=O)c1sc(NC(=O)CSc2nnnn2-c2ccc(C)cc2C)nc1C | inactive |  |
| N#Cc1ccc(CN2CC3(CCN(C(=O)c4ccco4)CC3)C2)cc1 | inconclusive: 25.1 µM [inhibitor, partial curve] |  |
| COc1ccc(NC(C)=O)cc1NC(=O)CSc1nnc(-c2ccccc2)n1N | inactive |  |
| Cc1nc2sc(C(=O)O)c(N)c2c2c1COC(C)(C)C2 | inactive |  |
| Cc1ccc(-c2nn(C)c(=O)c3ccccc23)cc1S(=O)(=O)NCCN1CCOCC1 | active: 25.1 µM |  |
| Cn1c(CC(=O)Nc2ccccc2)nnc1SCC(=O)c1ccccc1 | inconclusive: 20 µM [inhibitor, partial curve] |  |
| Brc1ccc(Oc2nsnc2N2CCOCC2)cc1 | inconclusive: 10 µM [inhibitor, partial curve, poor fit] |  |
| O=C(Nc1ccc2c(c1)Cc1ccccc1-2)c1ccco1 | inconclusive: 31.6 µM [inhibitor, single point] |  |
| O=S(=O)(c1ccccc1)N1CCC2(CCN(Cc3nccs3)CC2)CC1 | inconclusive: 5.01 µM [inhibitor, full curve, poor fit] |  |
| C=CCn1c(NCc2cc(C)ccc2O)nc2ccccc21 | inconclusive: 12.6 µM [inhibitor, partial curve] |  |
| CCOC(=O)C1CCN(C(=O)c2cnn3c(C)cc(C)nc23)CC1 | inactive |  |
| CCCC[C@@H]1C[C@H]1C(NC(=O)c1cccs1)c1ccccc1C(F)(F)F (stereo partly specified) | inconclusive: 39.8 µM [inhibitor, single point] |  |
| CN=c1nc(-c2ccccc2)n(-c2ccccc2)s1 | inactive |  |
| O=C(c1cccc(C(=O)N2CCN(c3ccccc3)CC2)c1)N1CCN(c2ccccc2)CC1 | inconclusive: 25.1 µM [inhibitor, partial curve] |  |
| O=C(Oc1cccc2cccnc12)c1ccc2c(c1)OCCO2 | inactive |  |
| COc1ccc(Oc2ncc3nc(-c4cccc(C#N)c4)c(=O)n(CCC#N)c3n2)cc1 | inconclusive: 0.316 µM [inhibitor, single point] |  |
| CCCCNc1cc(NC(C)=O)cc2cc(OC)c(OC)cc12 | inconclusive: 39.8 µM [inhibitor, single point] |  |
| O=C(Nc1nc(-c2ccc(S(=O)(=O)N3CCCC3)cc2)cs1)c1cccs1 | active: 15.8 µM |  |
| Cc1cc(C)c2c3c(c(-c4ccccc4)n2n1)c(=O)n(C)c(=O)n3C | inactive |  |
| CCOC(=O)c1c(C)n(C)c2c(C)cc(O)c(OC(C)=O)c12 |  | inconclusive: -30.9% [inhibitor] |
| NC(=O)c1sc2nccc(Nc3ccccc3)c2c1N | inconclusive: 3.98 µM [inhibitor, partial curve, poor fit] |  |
| COCCn1c(C)cc(C(=O)COC(=O)c2ccc3ncsc3c2)c1C | inconclusive: 10 µM [inhibitor, partial curve] |  |

| Structure (SMILES) | Potency | activity, negative = inhibition |
| --- | --- | --- |
| COc1ccc(CC(=O)N(Cc2cc3cc(OC)ccc3[nH]c2=O)C(C)C)cc1 | inactive |  |
| CN1CCN(c2ncc3nc(CCc4ccccc4)c(=O)n(Cc4cccs4)c3n2)CC1 | inconclusive: 39.8 µM [inhibitor, single point] |  |
| O=C(Nc1ccccc1)N1CCn2c1nc1ccccc12 | inconclusive: 39.8 µM [inhibitor, single point] |  |
| COc1ccccc1N(C(=O)c1snc(C(N)=O)c1N)C(C(=O)NC1CCCC1)c1ccco1 (stereo unspecified) | inactive |  |
| CSc1cccc(NC(=O)c2ccco2)c1 | inactive |  |
| CCCN1Cc2cccc(C(=O)N3CCN(c4cc(Cl)ccc4C)CC3)c2C1=O | inconclusive: 31.6 µM [inhibitor, single point] |  |
| CC(C)c1ccc(NC(=O)N2CCC(c3nc4ccccc4o3)CC2)cc1 | inconclusive: 25.1 µM [inhibitor, partial curve] |  |
| CCOc1cc(C2NC(=O)NC(O)(C(F)(F)F)C2C(=O)c2ccc(Cl)cc2)ccc1O (stereo unspecified) |  | inconclusive: -30% [inhibitor] |
| Cn1c(SCC(=O)N2CCN(c3cccc(Cl)c3)CC2)nnc1-c1ccncc1 | inconclusive: 15.8 µM [inhibitor, single point] |  |
| COc1ccc(N2CCN(C(=O)c3cc4c(-c5cccc(OC)c5)nn(C)c4s3)CC2)cc1 | inconclusive: 20 µM [inhibitor, single point] |  |
| Cc1cc(N2CCCCCC2)nc(-c2ccccc2O)n1 | inactive |  |
| CC1Cc2ccccc2N1S(=O)(=O)c1cccc2nsnc12 (stereo unspecified) | active: 15.8 µM |  |
| O=C(Nc1ccc(S(=O)(=O)C(F)F)cc1)c1cccc(S(=O)(=O)N2CCOCC2)c1 | inconclusive: 39.8 µM [inhibitor, single point] |  |
| O=C(NCc1ccco1)c1cc(-c2cccnc2)nc2ccccc12 | inconclusive: 25.1 µM [inhibitor, single point] |  |
| NC(=O)c1cnn2c(C(F)(F)F)cc(-c3ccccc3)nc12 | inconclusive: 15.8 µM [inhibitor, partial curve] |  |
| COc1ccccc1CN(Cc1cc2c(C)ccc(C)c2[nH]c1=O)Cc1nnnn1Cc1ccco1 | inconclusive: 12.6 µM [inhibitor, partial curve] |  |
| Cc1cccc(-n2ncc3c(NCc4ccc5c(c4)OCO5)ncnc32)c1 | inconclusive: 25.1 µM [inhibitor, partial curve] |  |
| CCCc1c(CC)c(=N)c2ccccc2n1C |  | inconclusive: -34.8% [inhibitor] |
| O=C(NCc1cccnc1)c1ccc(COc2ccc3c(c2)CCC3)o1 | active: 25.1 µM |  |
| COc1cccc2[nH]c3c(N4CCN(Cc5ccc6c(c5)OCO6)CC4)ncnc3c12 | inconclusive: 12.6 µM [inhibitor, partial curve] |  |
| Cn1c(CNc2ccc(Cl)cc2)nc2ccccc21 | inconclusive: 25.1 µM [inhibitor, partial curve] |  |
| O=C1c2ccccc2C(=O)N1C[C@]1(C(=O)O)NCCS1(=O)=O |  | inactive: 4.95% [at 11.5 µM] |
| O=c1c(-c2ccc(O)cc2)coc2cc(O)cc(O)c12 | inconclusive: 3.16 µM [inhibitor, partial curve] and inconclusive: 2 µM [inhibitor, full curve, poor fit] |  |
